Results are given in words; binding and its absence hold for the method and conditions named. Some results given as binding are weak or reduced against the parent protein; the word gives no strength.

Assay [1] deals with T1, EGFRvIII amino acid residues 15 to 37 with Gly21 to Ala mutation, yeast-displayed (human).
T1 sequence (peptide): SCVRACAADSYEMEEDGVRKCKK
The assay can be described thus: condition: 0% to 15% of binding to the wild-type fragment; flow cytometry on yeast displaying the mutated 15-37 fragment. A general note: A flow cytometer gives signals particle by particle.

Assay [2] concerns the target T2, EGFRvIII amino acid residues 15 to 37 with Cys35 to Ala mutation, yeast-displayed (human).
T2 sequence (peptide): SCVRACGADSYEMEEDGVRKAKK
The description is as above.

Assay [3] concerns the target T3, EGFRvIII amino acid residues 15 to 37 with Arg18 to Ala mutation, yeast-displayed (human).
T3 sequence (peptide): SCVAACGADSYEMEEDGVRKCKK
The description is as above.

Assay [4] has as its target T4, EGFRvIII amino acid residues 15 to 37 with Cys20 to Ala mutation, yeast-displayed (human).
T4 sequence (peptide): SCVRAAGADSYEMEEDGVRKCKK
Described as above.

The target in assay [5] is full length hEGFRvIII protein, yeast-displayed (human) (UniProt P00533). The assay can be described thus: flow cytometry on yeast displaying EGFRvIII constructs.

B1: F269-3D12 anti-EGFRvIII monoclonal antibody (antibody, V domains shown)
VH: EVQLQQSGPELVKPGSSVRISCKASGYTFTDYNMDWVKQSHGKSLEWIGTINPNNGGTSYNQKFKGKATLTVDKSSSTAYMELRSLTSEDSAVYYCARVRQLGLWFAYWGQGTLVTVSA
VL: EIVLTQSPALMAASPGEKVTITCSVSSSISSSNLHWYQQKSETSPKPWIYGTSNLASGVPVRFSGSGSGTSYSLTISSMEAEDAATYYCQQWSSYPLTFGSGTKLEIK
For the molecule B1, the binding entry in assay [1] was “no binding”; in assay [2], “no binding”; in assay [3], “no binding”; in assay [4] it was “no binding”; in assay [5], “binds”.

These data come from US20220323495A1.
